# Over roughly 110,000 compounds, “z-score” has its median near -0.1; the highest 2% begin near 2. The list shows a part of the results. Calls of active or inactive are those of the source.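 How the source made its calls: active means z-score in the third read window above 3 or below -3; inactive means the rest.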
# Biological target: Metabotropic glutamate receptor 8 (Rattus norvegicus) (UniProt P70579)
# Assay: mGluR8 Gi/Go-coupled signaling modulation – cell-based, rat, thallium flux, HTS, primary screen (AID 488969)
# Settings: HEK293 rat mGluR8, GIRK (G protein-gated inwardly rectifying potassium channel) thallium flux, FluoZin2; at 10 µM; stronger effect = higher value; submaximal glutamate (EC20) added with thallium
# Chain of UniProt P70579 (P70579 whole entry, looked up): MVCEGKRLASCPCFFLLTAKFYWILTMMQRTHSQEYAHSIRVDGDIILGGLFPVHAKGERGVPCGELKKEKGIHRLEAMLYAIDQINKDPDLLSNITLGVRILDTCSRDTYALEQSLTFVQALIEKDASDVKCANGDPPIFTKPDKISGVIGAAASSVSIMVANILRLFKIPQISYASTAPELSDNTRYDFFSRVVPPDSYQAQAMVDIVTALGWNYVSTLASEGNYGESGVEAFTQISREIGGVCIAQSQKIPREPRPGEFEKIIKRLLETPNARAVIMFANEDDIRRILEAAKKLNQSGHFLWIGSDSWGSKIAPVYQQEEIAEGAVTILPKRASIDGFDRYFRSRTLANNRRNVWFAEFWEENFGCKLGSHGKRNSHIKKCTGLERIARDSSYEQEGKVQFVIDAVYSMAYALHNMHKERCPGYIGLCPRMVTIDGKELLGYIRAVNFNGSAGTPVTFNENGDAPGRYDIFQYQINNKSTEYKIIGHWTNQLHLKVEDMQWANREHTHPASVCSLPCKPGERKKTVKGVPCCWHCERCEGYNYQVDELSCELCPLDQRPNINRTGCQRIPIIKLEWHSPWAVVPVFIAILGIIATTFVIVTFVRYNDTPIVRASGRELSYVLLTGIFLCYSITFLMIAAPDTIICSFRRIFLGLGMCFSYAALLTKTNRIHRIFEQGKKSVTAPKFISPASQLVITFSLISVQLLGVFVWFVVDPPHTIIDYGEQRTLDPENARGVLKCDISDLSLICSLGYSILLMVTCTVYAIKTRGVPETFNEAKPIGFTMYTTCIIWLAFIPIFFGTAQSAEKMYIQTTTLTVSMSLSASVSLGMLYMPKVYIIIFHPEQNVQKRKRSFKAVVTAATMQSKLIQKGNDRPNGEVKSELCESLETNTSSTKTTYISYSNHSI
row,SMILES,z-score
1,CCC(C)C(=O)Nc1nc(C)c(-c2csc(Nc3cc(Cl)ccc3OC)n2)s1 (configuration not stated),-0.145
2,CCOC(=O)CN(C(=O)CCC(=O)Nc1cc(C)on1)C(C(=O)NC1CCCC1)c1cccnc1 (configuration not stated),0.98
3,COc1ccc(C(C)=O)cc1COC(=O)c1cnc(C)cn1,-0.416
4,COc1ccc(C(=O)NCC(=O)NCC2(N(C)C)CCCCC2)cc1OC,0.0259
5,COC(=O)[C@@H]1[C@@H](C#N)C2(c3ccccc3-c3ccccc32)N(c2ccc(Cl)cc2)N1C#N,-0.00814
6,COc1ccc(NC(=O)CSc2ccccn2)cc1,-0.252
7,CN(C)C(CNS(=O)(=O)c1ccc(Cl)cc1)c1cccnc1 (configuration not stated),-0.0299
8,COc1ccc(N/N=C(/Oc2ccc([N+](=O)[O-])cc2)C(C)=O)cc1,-0.706
9,Cc1ccccc1NC(=O)Cc1ccccc1,-0.647
10,CCOC(=O)c1ccc(NC(=S)N2CCSC2c2ccc(Cl)cc2)cc1 (configuration not stated),0.0748
11,COc1ccc(N2CCN(Cc3nc4c(c(=O)n(C)c(=O)n4C)n3CC(C)=O)CC2)cc1,0.0804
12,COc1cccc(C(C)NC(=O)c2c(F)cccc2Cl)c1 (configuration not stated),0.339
13,CCN(CC)C(=O)CSc1ncnc2c(-c3cccs3)nsc12,0.226
14,CCOc1ccc(Cn2nnc(C(=O)Nc3cc(C)cc(C)c3)c2N)cc1,-0.0123
15,NC(=O)CSc1nc2ccccc2n1-c1ccccc1,0.2
16,CCCCN(CC)C(=O)Cn1ncc2c1-c1cc(C)ccc1OC2,-0.807
17,COC(CNC(=O)c1cc(C)nn1-c1ccccc1)OC,0.0295
18,CCOC(=O)c1ccc(NC=C2C(=O)OC3(CCCCC3)OC2=O)cc1,-0.448
19,CC(=O)Nc1ccccc1-c1nc2ccc(C(=O)N3CCN(c4cc(C)ccc4C)CC3)cc2[nH]c1=O,-0.169
20,Cc1ccc(C(=O)Nc2oc(-c3ccccc3)cc2C#N)cc1,0.866
21,CC(=O)c1sc(N/N=C\c2ccc(Br)cc2)nc1C,-0.109
22,O=C(Nc1ccc(Cl)cn1)c1cccnc1,0.384
23,Cc1ccc(-n2[nH]c(C)c(C=Nc3ccc(S(=O)(=O)N4CCOCC4)cc3)c2=O)c(C)c1,-0.374

row,SMILES,z-score
1,CCN1C=C(Cc2ccccc2C)C2=C(C1)C(c1ccccc1C)C(C#N)=C(N)O2 (configuration not stated),-0.307
2,O=C(N/N=C/c1ccc(Cl)c([N+](=O)[O-])c1)c1cnccn1,0.9
3,COc1ccc(/C(C)=N/NC(=O)c2cc(-c3cccnc3)nc3ccccc23)cc1,-0.0991
4,CCS(=O)(=O)n1nc(-c2ccc(C)cc2)nc1N,0.216
5,O=C1NCCN1Cc1cccc(Cl)c1,-0.251
6,Cc1ccc2[nH]c(=O)c(CN(Cc3cccs3)S(=O)(=O)c3ccc4c(c3)OCCO4)cc2c1,0.0485
7,COc1cc(SC)ccc1C(=O)N(C)Cc1ccccc1,0.253
8,CC(=O)Nc1ccc(NC(=O)N2CCCCC2)cc1,-0.396
9,CC(=O)Nc1ccc(S(=O)(=O)N/N=C/c2ccc(C)s2)cc1,0.93
10,Cc1sccc1C1C(C#N)=C(N)SC(N)=C1C#N,active: -4.47
11,CN1CCN(C(=O)C2(NC(=O)Nc3ccccc3Cl)CCCCC2)CC1,0.259
12,O=C(Cc1ccc(-c2ccccc2)cc1)NC(c1ccccc1)c1ccccc1,0.0168
13,COc1cccc(NC(=O)Cc2nnc(SCC(=O)c3ccccc3)n2C)c1,-0.61
14,Cc1ccc(NC(=O)NC2C(NC(=O)Nc3ccc(C)cc3)N(C)C(=O)N2C)cc1 (configuration not stated),-0.353
15,O=C(N/N=C/c1ccc([N+](=O)[O-])s1)c1ccncc1,-0.428
16,CSc1ccc(S(=O)(=O)Nc2cccc(F)c2)cc1,0.586
17,CCc1nc2ccccc2c2nc3ccccc3n12,-0.494
18,Cc1noc(NS(=O)(=O)c2ccc(NC(=O)C34CC5CC(C3)CC(n3cnc(Cl)n3)(C5)C4)cc2)c1C,0.429
19,O=C(NCCCN1CCOCC1)[C@@H]1CSC2c3ccccc3C(=O)N21 (some centres not stated),0.157
20,CC1CCCCN1S(=O)(=O)c1cnc(Cl)c(Br)c1 (configuration not stated),-0.124
21,Cc1occc1C(=O)NCc1cccs1,-0.645
22,CC(C)NCC(=O)NC12CC3CC(CC(C3)C1)C2,0.285
23,COCCCNc1oc(-c2ccccc2OC)nc1C#N,1.64

row,SMILES,z-score
1,Cn1c(CN2CCOCC2)nc2cc(NC(=O)c3ccccc3Cl)ccc21,-0.169
2,O=C(CC1SC(=O)N(Cc2ccccc2)C1=O)Nc1nccs1 (configuration not stated),-0.116
3,CC(C)N1C(=O)/C(=C/c2nc3ccccc3c(=O)n2-c2ccccc2)c2ccccc21,-0.518
4,Cc1ccccc1C(=O)O/N=C(\N)c1cccc([N+](=O)[O-])c1,-0.117
5,O=[N+]([O-])c1ccccc1N/N=C/c1cc2ccccc2nc1Cl,-0.459
6,Cc1ccccc1-n1c(C)nnc1SCC(=O)N1CCc2ccccc2C1,0.175
7,COc1ccc(CNC(=O)COC(=O)C2CCN(S(=O)(=O)c3ccccc3C(F)(F)F)CC2)cc1,-0.727
8,Cc1ccc(C2=NN(C(=O)CCl)C(c3cccs3)C2)o1 (configuration not stated),-0.392
9,CCN(C(=O)COC(=O)c1c(-c2ccccc2)noc1C)C1CCS(=O)(=O)C1 (configuration not stated),0.0658
10,CC(C)NC(=O)C(Sc1ccccc1)c1ccccc1 (configuration not stated),-0.154
11,C=CCNC(=O)c1onc(CSc2cccc3ccccc23)c1C(=O)O,-0.174
12,CN(C)c1ccc(CNC23CN4CN(CN(C4)C2)C3)cc1,0.628
13,COc1cc(/C=C/C(=O)OCC(=O)N2CCN(S(=O)(=O)c3ccc(C)cc3C)CC2)ccc1O,0.565
14,CCOC(=O)N1CC=C2C(C#N)=C(N)C(C#N)(C#N)[C@H](c3cccs3)C2C1 (some centres not stated),-0.232
15,Cc1nn(C)c(=O)n1-c1ccc(Oc2ccccc2)cc1,0.233
16,O=C1c2ccccc2C(O)N1Cc1ccc2c(c1)OCO2 (configuration not stated),-0.579
17,Cc1sc2ncnc(SCC(=O)NC3CC3)c2c1C,0.845
18,COC1CCCCC1Nc1cccc(SC)c1 (configuration not stated),-0.00833
19,COC(=O)c1ccc(-n2nnnc2SC)cc1,0.0382
20,CCC(=O)c1ccc(OCC(O)CN2CCN(C(c3ccccc3)c3ccccc3)CC2)cc1 (configuration not stated),0.0265
21,Cc1ccc(NC(=O)C2CCN(S(=O)(=O)c3cccc4cccnc34)CC2)nc1,-0.689
22,CC1(C)N=C(N)N=C(N)N1c1ccc(C(=O)O)cc1,-0.0416
23,CCCC(=O)Nc1ccc(C(=O)NNC(=O)c2ccccc2Br)cc1,-0.141

row,SMILES,z-score
1,CSc1ccc(C(=S)N2CCN(Cc3ccccc3)CC2)cc1,-0.199
2,Cc1cc([N+](=O)[O-])nn1Cc1ccc(C(=O)N/N=C/c2ccc(O)cc2O)cc1,-0.206
3,Cc1ccccc1-n1nc2c(c1NC(=O)c1cccc(F)c1)CS(=O)C2 (configuration not stated),-0.112
4,Fc1cccc(Cl)c1Cn1nnc(-c2ccc(N3CCOCC3)cc2)n1,0.136
5,COc1ccc(C2C(C#N)=C(N)SC(N)=C2C#N)cc1OC,-0.738
6,O=C(NC1CCCC1)C1c2ccccc2C(=O)N1C1CCCCC1 (configuration not stated),-0.386
7,Nc1nc(CN2CCN(c3ccccc3F)CC2)nc(Nc2ccc3c(c2)OCCO3)n1,-0.425
8,O=C(CCc1ccccc1)NNC(=O)c1ccccc1C(=O)O,-0.053
9,CC1CCCC(NC(=O)COC(=O)c2ccc(N(C)C)cc2)C1C (configuration not stated),-0.327
10,CCNc1nc(NCC)nc(Oc2ccc(N)cc2)n1,-0.231
11,CCc1nc(Nc2ccc(OC)c(OC)c2)c2nnn(Cc3ccccc3Cl)c2n1,0.049
12,COc1ccccc1NC(=O)CC1C(=O)NCCN1C(=O)Nc1ccccc1 (configuration not stated),-0.0489
13,CC(C)(C)NC(=O)COC(=O)c1cncc(Br)c1,-0.128
14,COC(=O)c1[nH]c2ccc(C)cc2c1NC(=O)C1=COCCO1,-0.0549
15,CC(C)C1Cc2c(sc(NC(=S)NC(=O)c3ccccc3)c2C#N)CO1 (configuration not stated),-0.13
16,C=CCO/N=C/C1C(=O)CC(C)(C)CC1=O,0.0439
17,Cc1ccc(Cl)cc1N1CCN(S(=O)(=O)c2cnc[nH]2)CC1,-0.301
18,Cc1cc(C)nc(SCc2nnc(SCC(=O)N3CCOCC3)o2)n1,0.157
19,COc1ccc(CNC(=O)C/C(C)=N/NC(=O)Cc2ccc(OC)cc2)cc1,-0.368
20,CC1CCN(CCOc2cc(Cl)ccc2Cl)CC1,0.0687
21,Clc1ccc(SCc2cn3ccsc3n2)cc1,-0.476
22,C=CCc1cc(C=O)cc(OCC)c1OCc1ccc(Cl)cc1,0.504
23,O=C(O)c1ccc2c(c1)-c1nc3ccccc3n1C2=O,-0.383

row,SMILES,z-score
1,COc1ccc2nc(SCCOC(=O)Nc3ccc(Cl)cc3)nc(C)c2c1,0.0957
2,Cc1c(C(=O)OCc2ccccc2)nnn1-c1nonc1N,0.544
3,COc1ncnc2c1oc1nc(CC(C)C)c3c(c12)CC(C)(C)OC3,-0.0934
4,COc1cc2[nH]c(=S)n(CCCN3CCOCC3)c(=O)c2cc1OC,0.0597
5,CC(C)CC(=O)NC(Nc1ccccc1F)C(Cl)(Cl)Cl (configuration not stated),0.198
6,O=C(Nc1ccccc1Sc1ccccc1)c1ccccc1F,0.0431
7,CCOC(=O)N1CCN(Cc2nc(N)nc(Nc3ccc(Oc4ccccc4)cc3)n2)CC1,-0.169
8,COc1ccc(S(=O)(=O)Nc2cc(C)c(O)cc2C(C)C)cc1,-0.264
9,CSc1ccc(C2C(C#N)=C(N)Oc3c2ccc(=O)c2c(C)oc(C)c32)cc1 (configuration not stated),-0.0831
10,CCSC1(SCC)N=C(N)C2(C#N)C(c3ccccc3)NC(C)=C(C)C12C#N (configuration not stated),0.276
11,O=S(=O)(c1cccs1)N1CCCc2ccccc21,0.48
12,Cc1nc(NC(=S)NC(=O)COc2ccccc2Cl)ccc1Br,0.851
13,CCCc1cc(C(=O)NCC(C)C)no1,-0.432
14,Cc1ccc(N(CCC(=O)Nc2nnc(C3CC3)s2)S(=O)(=O)c2ccccc2)cc1,-0.204
15,Nc1nncn1C(=O)CCCOc1ccccc1,0.683
16,COc1ccc(C(=O)NC(=S)Nc2ccc(N3CCOCC3)c(Cl)c2)cc1[N+](=O)[O-],-0.0588
17,Cc1cccc(NC(=O)c2cnc3n(c2=O)CCS3)c1,0.0446
18,CCC(=O)Nc1ccc(Cl)c(NC(=S)NC(=O)COc2ccccc2)c1,-0.169
19,O=C(NC(Cc1ccccc1)C(=O)O)/C(=C/c1ccco1)NC(=O)c1cccc(Br)c1 (configuration not stated),0.198
20,O=S(=O)(c1cccs1)N1CCN(CC(O)COc2cccc(Br)c2)CC1 (configuration not stated),-0.105

# From PubChem BioAssay AID488969 (Vanderbilt High Throughput Screening Facility, 2010)
